Reference: the supplement of paper PMC12067230
This is a noisy data set.
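Further: [psi-pin-] Saccharomyces cerevisiae expressing SupN fusions, induced by 100 µM Cu2SO4, selected 7 d at 30 °C without adenine and uracil, scored by deep sequencing of output versus input.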

Assay: amyloid nucleation score relative to library mode (yeast Sup35 reporter selection) (log enrichment difference); higher = more amyloid nucleation; sequences are the first 22 residues of the Bri2 peptide extended by up to 12 random residues
Conditions: random library (experiment): 1;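 active = nucleation score significantly above 0 at FDR 0.05; inactive = not significantly above 0 or absent from output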
For EASNCFAIRHFENKFAVETLICLTFLMTPECPCG, the amyloid nucleation score was “inactive”.
With EASNCFAIRHFENKFAVETLICLTICRWGCFAFC the amyloid nucleation score was “inactive”.
For EASNCFAIRHFENKFAVETLICLTIRVVMRGQYI, the amyloid nucleation score was “inactive”.
With EASNCFAIRHFENKFAVETLICLTKWGTQLSTRM the amyloid nucleation score was “inactive”.
Sequence EASNCFAIRHFENKFAVETLICLTLIVLTWLVCS has an amyloid nucleation score of 1.46.
For EASNCFAIRHFENKFAVETLICLTLQFEQEPD, the amyloid nucleation score was “inactive”.
For EASNCFAIRHFENKFAVETLICLTMCHCTGVCTE, the amyloid nucleation score was 6.67.
In the case of EASNCFAIRHFENKFAVETLICLTMMLC, the amyloid nucleation score is reported as “inactive”.
For EASNCFAIRHFENKFAVETLICLTQIMVRLVCAE, the amyloid nucleation score was “inactive”.
In the case of EASNCFAIRHFENKFAVETLICLTRGKEDVHSHA, the amyloid nucleation score is reported as “inactive”.
In the case of EASNCFAIRHFENKFAVETLICLTSSYEVVWATG, the amyloid nucleation score is reported as “inactive”.
With EASNCFAIRHFENKFAVETLICLTSVCYTYHCKK the amyloid nucleation score was “inactive”.
In the case of EASNCFAIRHFENKFAVETLICLTTILDVYVLWP, the amyloid nucleation score is reported as “inactive”.
With EASNCFAIRHFENKFAVETLICLTTLCGGLHKNG the amyloid nucleation score was “inactive”.
For EASNCFAIRHFENKFAVETLICLTV, the amyloid nucleation score was “inactive”.
For EASNCFAIRHFENKFAVETLICLTVIR, the amyloid nucleation score was “inactive”.
Work on EASNCFAIRHFENKFAVETLICLTVPPIGYHISR yielded an amyloid nucleation score of 0.618.
In the case of EASNCFAIRHFENKFAVETLICLTVRRFFEADCL, the amyloid nucleation score is reported as “inactive”.
Work on EASNCFAIRHFENKFAVETLICLTVSVA yielded an amyloid nucleation score of 1.19.
In the case of EASNCFAIRHFENKFAVETLICLTVV, the amyloid nucleation score is reported as “inactive”.
EASNCFAIRHFENKFAVETLICLTVVKVYEYYV gave an amyloid nucleation score of 2.63.
For EASNCFAIRHFENKFAVETLICLTVWSVKEDPLY, the amyloid nucleation score was “inactive”.
With EASNCFAIRHFENKFAVETLICLTWQIGVVVDLR the amyloid nucleation score was -0.12.
Work on EASNCFAIRHFENKFAVETLICLTWVQKVVPWHR yielded an amyloid nucleation score of 5.1.
With EASNCFAIRHFENKFAVETLICLTWYLCKRWSGR the amyloid nucleation score was “inactive”.
With EASNCFAIRHFENKFAVETLICLTYAASKRALL the amyloid nucleation score was -0.187.
For EASNCFAIRHFENKFAVETLICLTYCRVGAPRAK, the amyloid nucleation score was “inactive”.
For EASNCFAIRHFENKFAVETLICLV, the amyloid nucleation score was “inactive”.
In the case of EASNCFAIRHFENKFAVETLICLVALHHVLYIRR, the amyloid nucleation score is reported as “inactive”.
For EASNCFAIRHFENKFAVETLICLVALSTRLRVPQ, the amyloid nucleation score was “inactive”.
For EASNCFAIRHFENKFAVETLICLVATFNAMLGLG, the amyloid nucleation score was “inactive”.
For EASNCFAIRHFENKFAVETLICLVCDWEVNAVTG, the amyloid nucleation score was 7.16.
In the case of EASNCFAIRHFENKFAVETLICLVCGYG, the amyloid nucleation score is reported as 7.7.

Same assay, conditions: random library (experiment): 2
With EASNCFAIRHFENKFAVETLICLTENQ the amyloid nucleation score was “inactive”.
For EASNCFAIRHFENKFAVETLICLTFCFNVVNLVG, the amyloid nucleation score was “inactive”.
In the case of EASNCFAIRHFENKFAVETLICLTFIALFSFKHP, the amyloid nucleation score is reported as 0.494.
With EASNCFAIRHFENKFAVETLICLTFMLSPQTTDN the amyloid nucleation score was 7.17.
With EASNCFAIRHFENKFAVETLICLTFTMYCSCKNT the amyloid nucleation score was 5.99.
Work on EASNCFAIRHFENKFAVETLICLTGFGYCRECSR yielded an amyloid nucleation score of 6.35.
With EASNCFAIRHFENKFAVETLICLTGK the amyloid nucleation score was “inactive”.
In the case of EASNCFAIRHFENKFAVETLICLTKSLHTAYRAY, the amyloid nucleation score is reported as “inactive”.
In the case of EASNCFAIRHFENKFAVETLICLTLGFFRVWMIQ, the amyloid nucleation score is reported as “inactive”.
EASNCFAIRHFENKFAVETLICLTLS showed an amyloid nucleation score of -0.104.
In the case of EASNCFAIRHFENKFAVETLICLTMFCFNLFYWL, the amyloid nucleation score is reported as “inactive”.
For EASNCFAIRHFENKFAVETLICLTNIFCSDAFVY, the amyloid nucleation score was “inactive”.
In the case of EASNCFAIRHFENKFAVETLICLTRFWAL, the amyloid nucleation score is reported as “inactive”.
In the case of EASNCFAIRHFENKFAVETLICLTRIVSVSDLST, the amyloid nucleation score is reported as “inactive”.
With EASNCFAIRHFENKFAVETLICLTRSF the amyloid nucleation score was “inactive”.
With EASNCFAIRHFENKFAVETLICLTRVCPVDRTLD the amyloid nucleation score was “inactive”.
In the case of EASNCFAIRHFENKFAVETLICLTRWYHLMLSQG, the amyloid nucleation score is reported as “inactive”.
In the case of EASNCFAIRHFENKFAVETLICLTSFCILYNGKG, the amyloid nucleation score is reported as “inactive”.
Work on EASNCFAIRHFENKFAVETLICLTSKEYGFGFME yielded an amyloid nucleation score of 4.2.
With EASNCFAIRHFENKFAVETLICLTSLTC the amyloid nucleation score was 5.24.
With EASNCFAIRHFENKFAVETLICLTSWERRSVVS the amyloid nucleation score was “inactive”.
With EASNCFAIRHFENKFAVETLICLTVPHEVYGF the amyloid nucleation score was “inactive”.
In the case of EASNCFAIRHFENKFAVETLICLTWISLYVVVLR, the amyloid nucleation score is reported as “inactive”.
For EASNCFAIRHFENKFAVETLICLTYWSVAKSW, the amyloid nucleation score was 3.33.
With EASNCFAIRHFENKFAVETLICLVAAGSHDGCAL the amyloid nucleation score was “inactive”.
With EASNCFAIRHFENKFAVETLICLVAHWMQDRY the amyloid nucleation score was 2.09.
Work on EASNCFAIRHFENKFAVETLICLVALNARNSQSR yielded an amyloid nucleation score of 4.92.
With EASNCFAIRHFENKFAVETLICLVC the amyloid nucleation score was 5.86.
In the case of EASNCFAIRHFENKFAVETLICLVCIIVGSGLDS, the amyloid nucleation score is reported as “inactive”.

Same assay, conditions: random library (experiment): 3
With EASNCFAIRHFENKFAVETLICLTEAAHHGEVRF the amyloid nucleation score was 0.0182.
For EASNCFAIRHFENKFAVETLICLTGLKLLRPRGF, the amyloid nucleation score was 0.
EASNCFAIRHFENKFAVETLICLTGRNWESRETS showed an amyloid nucleation score of 3.18.
In the case of EASNCFAIRHFENKFAVETLICLTGSGHTRSRVW, the amyloid nucleation score is reported as 3.65.
Sequence EASNCFAIRHFENKFAVETLICLTHNLCVSIG has an amyloid nucleation score of 3.95.
For EASNCFAIRHFENKFAVETLICLTLLPWK, the amyloid nucleation score was “inactive”.
For EASNCFAIRHFENKFAVETLICLTLMSSMMCV, the amyloid nucleation score was “inactive”.
Work on EASNCFAIRHFENKFAVETLICLTNSSKHHFLPG yielded an amyloid nucleation score of 3.56.
In the case of EASNCFAIRHFENKFAVETLICLTPQATYGWGNG, the amyloid nucleation score is reported as “inactive”.
For EASNCFAIRHFENKFAVETLICLTPSVFLSCVW, the amyloid nucleation score was 4.38.
With EASNCFAIRHFENKFAVETLICLTRARFLGRMWG the amyloid nucleation score was 0.778.
In the case of EASNCFAIRHFENKFAVETLICLTRAVSSPHGLA, the amyloid nucleation score is reported as 3.5.
With EASNCFAIRHFENKFAVETLICLTSEFYVYVRVS the amyloid nucleation score was “inactive”.
For EASNCFAIRHFENKFAVETLICLTSRAMWDPLCA, the amyloid nucleation score was “inactive”.
For EASNCFAIRHFENKFAVETLICLTSTGSVVWTWG, the amyloid nucleation score was “inactive”.
Work on EASNCFAIRHFENKFAVETLICLTSYAYHPVCRE yielded an amyloid nucleation score of 1.21.
Sequence EASNCFAIRHFENKFAVETLICLTTKGPASSGTL has an amyloid nucleation score of 4.18.
With EASNCFAIRHFENKFAVETLICLTTKYRLKHVDS the amyloid nucleation score was 0.0748.
Sequence EASNCFAIRHFENKFAVETLICLTVGSCGFAALG has an amyloid nucleation score of 3.09.
With EASNCFAIRHFENKFAVETLICLTVMDLFHIGAK the amyloid nucleation score was 5.44.
With EASNCFAIRHFENKFAVETLICLTVNWIAFNSIC the amyloid nucleation score was 1.48.
Sequence EASNCFAIRHFENKFAVETLICLTWVVTSLRARC has an amyloid nucleation score of 2.87.
For EASNCFAIRHFENKFAVETLICLVALRGGPCS, the amyloid nucleation score was “inactive”.
Work on EASNCFAIRHFENKFAVETLICLVAMNEQWRAQL yielded an amyloid nucleation score of 4.53.
